Results published in PubChem BioAssay AID485281 (National Center for Advancing Translational Sciences (NCATS), 2010).
Several values for one entry are separate records, joined by “and”; a condition that tells them apart may be missing. Identical values can stand only once. About 260 (0.074%) of roughly 350,000 compounds were called active. The shares of active, inactive and inconclusive entries below differ from those in the screen. Calls follow the shape of the dose curve; as a rule, active = well fitted inhibition curve with a large enough effect; inconclusive = small, poorly fitted or top-dose-only effect; inactive = no such curve, though single readings can be large or run the other way. A potency beside an inconclusive call is a rough fit, not a confirmed value.

target: Ferritin light chain (Equus caballus) (UniProt P02791); assay: qHTS Assay for Identification of Novel General Anesthetics; conditions: apoferritin/1-aminoanthracene competitive binding, fluorescence; series mostly up to 77.5 µM; also: nearly all actives have a fitted effect of over 20% in size
UniProt P02791, sequence (P02791 whole entry, looked up): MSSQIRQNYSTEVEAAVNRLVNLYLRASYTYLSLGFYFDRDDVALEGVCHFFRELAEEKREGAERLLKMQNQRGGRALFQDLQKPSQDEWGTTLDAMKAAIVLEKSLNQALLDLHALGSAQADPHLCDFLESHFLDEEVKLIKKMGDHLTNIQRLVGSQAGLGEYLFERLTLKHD
How it was run: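 Read-out: endpoint 1-AMA fluorescence, excitation 380 nm and emission 535 nm, after compounds sit 10 min at room temperature with 10 uM horse-spleen apoferritin in 50% saturated 1-AMA/PBS. Values come from four-parameter Hill fits.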
Potency is read from the fitted curve at half-maximal effect; tags tell the direction and shape of the fitted curve.

Row | SMILES | Potency
1 | CNC(=O)Oc1cccc2c1OC(C)(C)C2 | inconclusive: 35.5 µM [inhibitor, single point]
2 | Cc1ccccc1-n1nc(C)c2c1NC(=O)CSC2c1ccc(N(C)C)cc1 (stereo unspecified) | inconclusive: 14.1 µM [inhibitor, partial curve, poor fit]
3 | CC(C)(O)c1[se]c2ccccc2c1I | inconclusive: 28.2 µM [inhibitor, partial curve]
4 | CCOC(=O)C(NC(=O)CCl)(Nc1ccc(C(O)(C(=O)OCC)C(F)(F)F)cc1)C(F)(F)F (stereo unspecified) | inconclusive: 25.1 µM [inhibitor, partial curve]
5 | CCOP(=O)(OCC)/C(C#N)=C/c1cc(OC)ccc1OC | inactive
6 | O=C(C/C=N\OCc1c(Cl)cccc1Cl)Oc1ccc(Cl)cc1Cl | inconclusive: 25.1 µM [inhibitor, partial curve]
7 | CC([C@H](O)c1ccccc1)N(C)C (stereo partly specified) | inactive
8 | COc1ccc(C(C)=O)cc1COC(=O)c1ccc2ccccc2n1 | inconclusive: 39.8 µM [inhibitor, single point]
9 | O=C(Nc1ccc(Cl)c(Cl)c1)O/N=C/c1ccncc1 | inconclusive: 22.4 µM [inhibitor, partial curve]
10 | N#CC(C#N)=NNc1ccc(OC(F)(F)F)cc1 | inconclusive: 31.6 µM [inhibitor, single point]
11 | CCCCc1nn2c(=O)cc(COC(=O)Cc3ccccc3)nc2s1 | inconclusive: 31.6 µM [inhibitor, partial curve]
12 | COC(=O)C(O)(c1ccc(N(C)C(=O)OC(C)C)cc1)C(F)(F)F (stereo unspecified) | inconclusive: 22.4 µM [inhibitor, partial curve]
13 | Cc1ccc(-n2c(/C=C/c3ccccn3)nc3ccccc3c2=O)cc1 | inactive
14 | CCc1cccc(NC(=O)Cn2c(=O)oc3cc(S(=O)(=O)N4CCOCC4)ccc32)c1 | inconclusive: 14.1 µM [inhibitor, partial curve]
15 | COc1ccc(CC(C)Nc2cccc(F)c2)cc1 (stereo unspecified) | inconclusive: 17.8 µM [inhibitor, partial curve]
16 | CC(C)COc1ccc(C2(C#N)CC[N+](C)(C)CC2)cc1 | inconclusive: 31.6 µM [inhibitor, partial curve]
17 | OC1/C(=C/c2ccccc2F)N2CCC1CC2 (stereo unspecified) | inconclusive: 31.6 µM [inhibitor, partial curve]
18 | Cc1nc2sccc2c(=O)n1-c1ccccc1Cl | inconclusive: 28.2 µM [inhibitor, partial curve]
19 | C=Cc1ccc(Cn2c(C)c(CNCCc3cc(OC)ccc3OC)c(C(=O)O)c2C)cc1 | inconclusive: 25.1 µM [inhibitor, partial curve]
20 | COc1cccc(CN2CCCCC2c2cccnc2)c1 (stereo unspecified) | inconclusive: 31.6 µM [inhibitor, partial curve]
21 | CCCc1cc2c(n1Cc1cccc(Cl)c1)C(C)C1CN(C(=O)c3ccccc3)C(C)(C(=O)OC)C21 (stereo unspecified) | inconclusive: 22.4 µM [inhibitor, partial curve]
22 | OC1(CN2CCOCC2)C2CC3CC(C2)CC1C3 (stereo unspecified) | inconclusive: 20 µM [inhibitor, partial curve]

Row | SMILES | Potency
23 | CCC(=NCCc1ccccc1)c1c(O)n(C2CCCCC2)c(=O)[nH]c1=O | inconclusive: 7.94 µM [inhibitor, partial curve]
24 | CCCCC/C=C\C/C=C\C/C=C\C/C=C\CCCC(=O)NCCc1ccc(O)c(O)c1 | inconclusive: 17.8 µM [inhibitor, partial curve]
25 | COc1cc2c(cc1O)C[C@H]1c3c(cc(O)c(OC)c3-2)CCN1C | inactive
26 | O=C1NC(=O)N(Cc2ccco2)C(=O)/C1=C\c1ccc(-c2ccc(F)cc2)o1 | inconclusive: 39.8 µM [inhibitor, single point]
27 | CC(=O)Nc1ccccc1C(=O)OCc1ccc(C(=O)c2ccccc2)cc1 | inconclusive: 17.8 µM [inhibitor, partial curve]
28 | O=C(Cc1ccccc1)Oc1ccc(N2C(=O)C3CCCCC3C2=O)cc1 (stereo unspecified) | inactive
29 | CCCCn1c(O)c(C(C)=Nc2ccc(OCC)cc2)c(=O)[nH]c1=O | inconclusive: 3.16 µM [inhibitor, partial curve]
30 | O=C1NC(=O)N(c2cccc(Cl)c2)C(=O)/C1=C\c1ccc(Sc2nc3ccccc3[nH]2)o1 | inactive
31 | Cc1ccc(C(=O)c2cc(Br)ccc2N)cc1 | inconclusive: 35.5 µM [inhibitor, partial curve]
32 | COCCOC(=O)c1c(N)n(Cc2ccco2)c2nc3ccccc3nc12 | inactive
33 | CCCCc1cc(=O)oc2cc(OCC(=O)N3C[C@H]4C[C@@H](C3)c3cccc(=O)n3C4)c(Cl)cc12 | inconclusive: 28.2 µM [inhibitor, partial curve]
34 | COc1cc(C(C)=O)ccc1OC(=O)N(C)c1ccccc1 | inconclusive: 12.6 µM [inhibitor, partial curve]
35 | CN(C)c1ccc(C=C2C(=O)NC(=O)NC2=O)cc1[N+](=O)[O-] | inconclusive: 39.8 µM [inhibitor, single point]
36 | CCOC(=O)C1CCCN(C(=O)c2ccc3oc(Cc4ccccc4)nc3c2)C1 (stereo unspecified) | inconclusive: 25.1 µM [inhibitor, partial curve]
37 | O=C1NC(=O)N(Cc2ccccc2)C(=O)/C1=C\C=C\c1ccco1 | inconclusive: 22.4 µM [inhibitor, partial curve]
38 | CN(C(=O)Oc1cccc2cccnc12)c1ccccc1 | inconclusive: 22.4 µM [inhibitor, partial curve]
39 | CCN(CC)c1ccc(N=Cc2c(O)n(CCC3=CCCCC3)c(=O)[nH]c2=O)cc1 | inactive
40 | C=C[C@@H]1C[C@@]1(C)[C@@H](NP(=O)(c1ccccc1)c1ccccc1)c1ccccc1 | inconclusive: 39.8 µM [inhibitor, single point] and inconclusive: 50.1 µM [inhibitor, single point]
41 | COC(=O)CSc1nc2sc3c(c2c(=O)n1C1CCCCC1)CCN(C)C3 | inconclusive: 17.8 µM [inhibitor, partial curve]
42 | CN(C)P(=NC(=S)c1cccn1C)(N(C)C)N(C)C | inactive
43 | CCOc1ccccc1-n1c(O)c(C=NCCCN(CC)CC)c(=O)[nH]c1=O | inactive
44 | COc1ccccc1OCCCn1cc(C(=O)c2ccco2)c2ccccc21 | inconclusive: 35.5 µM [inhibitor, partial curve]

Row | SMILES | Potency
45 | COc1ccc(CCNC(=O)CCn2c(=O)c3ccccc3n(Cc3ccc(Cl)cc3)c2=O)cc1OC | inconclusive: 6.31 µM [inhibitor, single point]
46 | Cc1cccc(N=Nc2ccc(N(C)C)cc2)c1 | inactive
47 | COC(=O)c1c(N)n(Cc2ccc(OC)cc2)c2nc3ccccc3nc12 | inactive
48 | Cc1cccc2c3c(ccc12)C1=C(C(=O)C3=O)C(C)CO1 (stereo unspecified) | inconclusive: 39.8 µM [inhibitor, single point]
49 | CN(C(=O)CNC(=O)OCc1ccccc1)c1ccc(Br)cc1C(=O)c1ccccc1Cl | inconclusive: 25.1 µM [inhibitor, partial curve]
50 | CN(C)[C@@H]1C(=O)C(C(N)=O)=C(O)[C@@]2(O)C(=O)C3=C(O)c4c(O)cccc4[C@@](C)(O)[C@H]3[C@H](O)[C@@H]12 | inactive
51 | CN(c1ccccc1)c1ccc([N+](=O)[O-])c2nonc12 | inconclusive: 39.8 µM [inhibitor, single point]
52 | COC(=O)Cn1cc(/C=C2\C(=O)NC(=O)N(c3ccc(OC)cc3)C2=O)c2ccccc21 | inactive
53 | O=c1[nH]c(=S)[nH]c(O)c1N=Nc1ccc(-c2ccccc2)cc1[N+](=O)[O-] | inconclusive: 17.8 µM [inhibitor, partial curve]
54 | Nc1ccc(Cl)cc1C(=O)c1ccccc1 | inconclusive: 35.5 µM [inhibitor, single point]
55 | CCCCN=C[C@]12CCC(O)CC1(O)CCC1[C@@H]2CC[C@]2(C)[C@H](C3C=CC(=O)O3)CCC12O (stereo partly specified) | inactive
56 | C=CCN1C(=O)/C(=C\c2ccc(N3CCOCC3)o2)C(=O)NC1=S | inactive
57 | Cc1ccc(CN2C(=O)CN=C(c3ccccc3)c3ccccc32)cc1 | inconclusive: 31.6 µM [inhibitor, single point]
58 | CCOc1ccc(N2C(=O)/C(=C/c3ccc(C)o3)C(=O)NC2=S)cc1 | inactive
59 | CC(C)CCOP(=O)(c1ccc(N(C)C)cc1)C(O)c1ccc(C(C)C)cc1 (stereo unspecified) | inconclusive: 44.7 µM [inhibitor, partial curve]
60 | C=CCN1C(=O)NC(=O)/C(=C/c2c(CCN(C)C(=O)c3ccccc3)cc3c(c2OC)OCO3)C1=O | inconclusive: 50.1 µM [inhibitor, single point]
61 | CCN(c1ccc(C(O)(C(=O)OC)C(F)(F)F)cc1)S(=O)(=O)c1ccc(C)cc1 (stereo unspecified) | inconclusive: 35.5 µM [inhibitor, single point]
62 | CCCCCCCCCCCCCCCC[n+]1ccccc1 | inconclusive: 31.6 µM [inhibitor, single point]
63 | CN(C)[C@@H]1C(=O)C(C(N)=O)=C(O)[C@]2(O)C(=O)C3=C(O)c4c(O)cccc4[C@@](C)(O)[C@H]3[C@H](O)[C@@H]12 | inactive
64 | COc1ccc(CN2C(=O)NC(=O)/C(=C/c3ccc([N+](=O)[O-])o3)C2=O)cc1 | inconclusive: 22.4 µM [inhibitor, partial curve]
65 | CCN(CC)S(=O)(=O)c1ccc(N=Cc2c(O)n(-c3ccccc3)c(=O)[nH]c2=O)cc1 | inconclusive: 31.6 µM [inhibitor, partial curve]
66 | CC1Cc2ccccc2N1C(=O)COC(=O)c1ccc(Cl)nc1 (stereo unspecified) | inconclusive: 28.2 µM [inhibitor, partial curve]
